Publication PMC9513894
Results are given in words; binding and its absence hold for the method and conditions named. Binding seen in cells or lysates may run through a third protein. Some results given as binding are weak or reduced against the parent protein; the word gives no strength. Tags and fused reporters may be left off the sequences shown.

Protein sequences, listed by entry. Tags and fused reporters are not part of them. Lines headed by an entry give the natural chain unless they say otherwise; changes in a name come on top. Chains listed by the source or under a name are the forms on record and can include a tag or linker. Residues count along the entry.
UniProt Q14694: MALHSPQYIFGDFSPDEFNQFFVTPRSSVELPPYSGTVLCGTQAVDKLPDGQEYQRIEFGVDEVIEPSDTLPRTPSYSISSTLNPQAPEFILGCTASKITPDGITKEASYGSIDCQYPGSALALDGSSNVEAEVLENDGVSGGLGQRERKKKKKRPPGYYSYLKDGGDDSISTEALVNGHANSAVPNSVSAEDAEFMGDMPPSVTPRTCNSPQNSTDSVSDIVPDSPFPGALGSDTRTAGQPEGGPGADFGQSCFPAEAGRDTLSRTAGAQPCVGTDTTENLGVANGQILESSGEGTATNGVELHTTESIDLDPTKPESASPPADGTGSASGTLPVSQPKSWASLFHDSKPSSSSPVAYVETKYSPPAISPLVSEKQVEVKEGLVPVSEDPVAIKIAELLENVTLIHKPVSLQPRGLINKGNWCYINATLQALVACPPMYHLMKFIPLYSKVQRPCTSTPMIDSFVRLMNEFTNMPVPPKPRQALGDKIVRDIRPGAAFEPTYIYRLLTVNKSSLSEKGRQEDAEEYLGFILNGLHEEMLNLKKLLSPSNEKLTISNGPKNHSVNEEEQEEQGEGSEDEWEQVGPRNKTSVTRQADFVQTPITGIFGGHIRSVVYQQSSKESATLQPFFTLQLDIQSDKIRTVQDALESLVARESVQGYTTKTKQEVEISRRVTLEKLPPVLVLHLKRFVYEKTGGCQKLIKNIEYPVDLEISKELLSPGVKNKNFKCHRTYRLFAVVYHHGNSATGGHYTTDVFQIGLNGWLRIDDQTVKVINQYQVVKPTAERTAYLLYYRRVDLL
GST-tagged USP10 400–798: residues 400-798 of Q14694
UniProt Q93009: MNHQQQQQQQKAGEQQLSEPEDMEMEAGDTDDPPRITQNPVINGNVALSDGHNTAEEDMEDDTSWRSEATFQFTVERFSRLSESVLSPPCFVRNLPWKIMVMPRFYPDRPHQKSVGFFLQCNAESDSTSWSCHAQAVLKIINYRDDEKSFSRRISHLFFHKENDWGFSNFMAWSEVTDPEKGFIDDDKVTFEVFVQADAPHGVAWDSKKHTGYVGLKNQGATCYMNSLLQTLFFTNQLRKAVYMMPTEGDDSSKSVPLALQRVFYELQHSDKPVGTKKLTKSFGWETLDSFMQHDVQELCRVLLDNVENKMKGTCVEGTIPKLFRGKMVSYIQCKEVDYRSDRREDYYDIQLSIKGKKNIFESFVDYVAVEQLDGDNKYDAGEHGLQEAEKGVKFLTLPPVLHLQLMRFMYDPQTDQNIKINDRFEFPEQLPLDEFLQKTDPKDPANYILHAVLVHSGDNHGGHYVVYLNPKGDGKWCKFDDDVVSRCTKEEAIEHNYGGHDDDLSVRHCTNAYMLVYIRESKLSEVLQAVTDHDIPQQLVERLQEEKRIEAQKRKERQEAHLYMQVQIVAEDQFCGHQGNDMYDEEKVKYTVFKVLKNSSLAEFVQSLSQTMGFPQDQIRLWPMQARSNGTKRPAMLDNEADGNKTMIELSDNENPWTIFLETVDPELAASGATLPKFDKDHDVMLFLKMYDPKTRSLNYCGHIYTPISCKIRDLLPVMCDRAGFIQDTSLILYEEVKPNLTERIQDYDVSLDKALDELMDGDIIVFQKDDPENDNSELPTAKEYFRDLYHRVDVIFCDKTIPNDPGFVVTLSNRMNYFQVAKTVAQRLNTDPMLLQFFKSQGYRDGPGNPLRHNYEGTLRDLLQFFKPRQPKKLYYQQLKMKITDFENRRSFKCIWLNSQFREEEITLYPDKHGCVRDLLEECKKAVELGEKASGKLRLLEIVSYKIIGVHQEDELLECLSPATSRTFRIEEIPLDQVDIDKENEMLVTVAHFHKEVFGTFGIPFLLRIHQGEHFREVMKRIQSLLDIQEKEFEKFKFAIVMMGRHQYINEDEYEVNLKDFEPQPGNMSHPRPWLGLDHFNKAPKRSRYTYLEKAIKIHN

Tests used:
GST-tagged USP10 400–798 = GST-tagged USP10 400–798 (UniProt Q14694); assay: co-IP; GST-tagged USP10 constructs and HA-HDAC7 co-transfected in HEK-293T cells; pull down with anti-HA or anti-GST
[1] = biological target: GST-tagged full-length USP10 (UniProt Q14694); assay: as above
[2] = biological target: Flag-USP10 (ubiquitin-specific peptidase 10) (UniProt Q14694); assay: co-IP; Flag-tagged USPs and HA-HDAC7 transfected into HEK-293T cells; anti-Flag beads (4 °C, 4 h; washed 4 times with NETN buffer); HA-HDAC7 detected by immunoblot
Flag-USP13 = biological target: T1, Flag-USP13 (UniProt Q92995); assay: as above
T1 sequence: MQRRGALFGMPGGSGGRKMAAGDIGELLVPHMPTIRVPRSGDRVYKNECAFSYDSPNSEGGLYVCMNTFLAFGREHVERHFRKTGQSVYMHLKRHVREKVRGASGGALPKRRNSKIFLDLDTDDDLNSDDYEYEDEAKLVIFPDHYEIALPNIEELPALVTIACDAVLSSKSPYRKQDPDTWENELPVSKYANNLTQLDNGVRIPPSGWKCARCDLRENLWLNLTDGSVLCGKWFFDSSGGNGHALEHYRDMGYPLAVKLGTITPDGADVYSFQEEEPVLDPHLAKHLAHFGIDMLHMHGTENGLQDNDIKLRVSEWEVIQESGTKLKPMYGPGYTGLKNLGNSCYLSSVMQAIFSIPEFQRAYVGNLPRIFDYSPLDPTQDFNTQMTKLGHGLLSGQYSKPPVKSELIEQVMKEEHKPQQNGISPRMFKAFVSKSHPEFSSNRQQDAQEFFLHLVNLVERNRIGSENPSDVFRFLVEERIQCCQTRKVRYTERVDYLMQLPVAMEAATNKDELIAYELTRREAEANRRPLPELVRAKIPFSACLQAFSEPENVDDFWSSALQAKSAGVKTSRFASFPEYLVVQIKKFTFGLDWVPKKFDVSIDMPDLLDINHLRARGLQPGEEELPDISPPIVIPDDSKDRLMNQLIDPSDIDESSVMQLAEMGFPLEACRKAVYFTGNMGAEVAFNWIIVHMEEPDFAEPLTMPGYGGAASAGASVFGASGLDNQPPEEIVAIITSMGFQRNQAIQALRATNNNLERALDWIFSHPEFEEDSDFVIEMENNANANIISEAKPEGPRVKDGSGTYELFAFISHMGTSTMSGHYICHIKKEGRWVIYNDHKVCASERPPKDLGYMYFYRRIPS

Flag-USP2 = biological target: T2, Flag-USP2 (UniProt O75604); assay: as above
T2 sequence: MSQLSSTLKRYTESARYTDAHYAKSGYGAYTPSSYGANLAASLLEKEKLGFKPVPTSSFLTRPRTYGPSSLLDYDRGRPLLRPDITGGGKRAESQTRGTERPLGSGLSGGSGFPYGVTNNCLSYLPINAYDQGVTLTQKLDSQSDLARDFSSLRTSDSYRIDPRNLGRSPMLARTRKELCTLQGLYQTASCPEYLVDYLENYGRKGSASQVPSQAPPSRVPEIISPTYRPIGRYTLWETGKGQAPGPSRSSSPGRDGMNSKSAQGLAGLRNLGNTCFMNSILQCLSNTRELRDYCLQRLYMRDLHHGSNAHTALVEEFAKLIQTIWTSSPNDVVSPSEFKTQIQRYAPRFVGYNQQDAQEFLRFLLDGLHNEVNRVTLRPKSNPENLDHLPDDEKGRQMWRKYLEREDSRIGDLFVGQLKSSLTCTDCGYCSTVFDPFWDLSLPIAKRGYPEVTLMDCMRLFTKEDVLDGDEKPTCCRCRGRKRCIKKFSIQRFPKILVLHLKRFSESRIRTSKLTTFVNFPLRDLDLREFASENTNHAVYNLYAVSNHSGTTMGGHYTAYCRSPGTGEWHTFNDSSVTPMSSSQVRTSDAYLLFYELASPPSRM

Flag-USP22 = biological target: T3, Flag-USP22 (UniProt Q9UPT9); assay: as above
T3 sequence: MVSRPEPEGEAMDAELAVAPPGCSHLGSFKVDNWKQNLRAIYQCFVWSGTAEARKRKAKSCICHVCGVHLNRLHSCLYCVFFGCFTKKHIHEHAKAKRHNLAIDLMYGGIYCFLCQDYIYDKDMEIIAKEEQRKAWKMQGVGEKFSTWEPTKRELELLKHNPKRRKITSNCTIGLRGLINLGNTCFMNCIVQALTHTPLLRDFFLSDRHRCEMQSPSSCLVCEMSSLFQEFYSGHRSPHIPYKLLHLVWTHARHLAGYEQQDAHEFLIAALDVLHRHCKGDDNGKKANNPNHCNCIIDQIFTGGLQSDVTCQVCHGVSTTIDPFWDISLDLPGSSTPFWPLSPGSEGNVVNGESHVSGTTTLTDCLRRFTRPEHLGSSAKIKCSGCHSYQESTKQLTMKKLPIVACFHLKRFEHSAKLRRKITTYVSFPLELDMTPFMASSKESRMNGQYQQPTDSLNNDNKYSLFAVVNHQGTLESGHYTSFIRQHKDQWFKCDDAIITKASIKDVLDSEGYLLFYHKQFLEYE

Flag-USP7 = Flag-USP7 (UniProt Q93009); assay: as above

B1: HA-HDAC7 (histone deacetylase 7) (enzyme, UniProt Q8WUI4 1-952)
chain: MDLRVGQRPPVEPPPEPTLLALQRPQRLHHHLFLAGLQQQRSVEPMRLSMDTPMPELQVGPQEQELRQLLHKDKSKRSAVASSVVKQKLAEVILKKQQAALERTVHPNSPGIPYRTLEPLETEGATRSMLSSFLPPVPSLPSDPPEHFPLRKTVSEPNLKLRYKPKKSLERRKNPLLRKESAPPSLRRRPAETLGDSSPSSSSTPASGCSSPNDSEHGPNPILGSEALLGQRLRLQETSVAPFALPTVSLLPAITLGLPAPARADSDRRTHPTLGPRGPILGSPHTPLFLPHGLEPEAGGTLPSRLQPILLLDPSGSHAPLLTVPGLGPLPFHFAQSLMTTERLSGSGLHWPLSRTRSEPLPPSATAPPPPGPMQPRLEQLKTHVQVIKRSAKPSEKPRLRQIPSAEDLETDGGGPGQVVDDGLEHRELGHGQPEARGPAPLQQHPQVLLWEQQRLAGRLPRGSTGDTVLLPLAQGGHRPLSRAQSSPAAPASLSAPEPASQARVLSSSETPARTLPFTTGLIYDSVMLKHQCSCGDNSRHPEHAGRIQSIWSRLQERGLRSQCECLRGRKASLEELQSVHSERHVLLYGTNPLSRLKLDNGKLAGLLAQRMFVMLPCGGVGVDTDTIWNELHSSNAARWAAGSVTDLAFKVASRELKNGFAVVRPPGHHADHSTAMGFCFFNSVAIACRQLQQQSKASKILIVDWDVHHGNGTQQTFYQDPSVLYISLHRHDDGNFFPGSGAVDEVGAGSGEGFNVNVAWAGGLDPPMGDPEYLAAFRIVVMPIAREFSPDLVLVSAGFDAAEGHPAPLGGYHVSAKCFGYMTQQLMNLAGGAVVLALEGGHDLTAICDASEACVAALLGNRVDPLSEEGWKQKPNLNAIRSLEAVIRVHSKYWGCMQRLASCPDSWVPRVPGADKEEVEAVTALASLSVGILAEDRPSEQLVEEEEPMNL
With B1 the binding (GST-tagged USP10 400–798) was “binds”, the binding [1] was “binds” and the binding [2] was “binds”. For the same binder, the binding (Flag-USP13) was “no binding”, the binding (Flag-USP2) was “no binding” and the binding (Flag-USP22) was “no binding”. For the same binder, the binding (Flag-USP7) was “no binding”.
